Data: PubChem BioAssay AID1030 (National Center for Advancing Translational Sciences (NCATS), 2008)
Screen size: about 220,000 compounds; about 16,000 (7.3%) were called active. Inconclusive means that the source gave no clear call. Such entries were picked first, then a sample of the others. Calls come from the whole dose curve; as a rule, active = well fitted inhibition curve with a large enough effect (not every such curve was filed as active); inconclusive = small, poorly fitted or top-dose-only effect, or another doubt; inactive = no such curve, though single readings can be large or run the other way. Where the call is inconclusive, the potency comes from a doubtful curve fit.

Biological target: Aldehyde dehydrogenase 1A1 (Homo sapiens) (UniProt P00352)
Sequence of UniProt P00352 (P00352 whole entry, looked up): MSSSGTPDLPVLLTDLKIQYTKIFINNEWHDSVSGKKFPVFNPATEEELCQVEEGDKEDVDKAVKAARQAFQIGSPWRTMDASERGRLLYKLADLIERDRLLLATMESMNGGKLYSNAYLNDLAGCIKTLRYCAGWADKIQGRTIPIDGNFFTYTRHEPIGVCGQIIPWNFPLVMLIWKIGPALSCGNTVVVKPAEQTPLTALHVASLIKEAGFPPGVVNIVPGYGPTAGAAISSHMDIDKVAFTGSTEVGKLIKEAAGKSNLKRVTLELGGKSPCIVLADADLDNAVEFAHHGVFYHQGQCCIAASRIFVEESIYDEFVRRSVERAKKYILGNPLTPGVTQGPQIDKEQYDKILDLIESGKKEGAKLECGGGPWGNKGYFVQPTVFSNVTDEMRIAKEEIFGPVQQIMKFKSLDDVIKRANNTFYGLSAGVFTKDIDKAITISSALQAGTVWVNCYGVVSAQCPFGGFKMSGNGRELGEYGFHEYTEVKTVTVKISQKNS
Test: qHTS Assay for Inhibitors of Aldehyde Dehydrogenase 1 (ALDH1A1);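 for activity, negative = inhibition: plate controls were no enzyme wells and a reference inhibitor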
Conditions: Purified ALDH1A1, NADH fluorescence, propionaldehyde substrate; series mostly up to 75.3 µM
Potency is the fitted concentration of half-maximal effect; tags give direction and shape of the fitted curve.

Potency, inactive:
COc1ccccc1-n1ccnc1SCC(=O)NCc1ccco1
Cc1ccc2nc(C3CCN(CC(=O)N4CCCCCC4)CC3)[nH]c2c1
O=C(Nc1ccc(F)cc1)c1nc[nH]c1C(=O)Nc1ccccc1[N+](=O)[O-]
CCOC(=O)c1ccccc1NC(=O)c1cccnc1
Cc1cc(C)n(-c2nc3sc4c(c3c3nnc(SCC(N)=O)n23)CC(C)(C)OC4)n1
C=CCNC(=O)NC(=O)COC(=O)/C(C#N)=C/c1cc(C)n(CC(C)C)c1C
CCc1cccc(CC)c1NC(=O)COC(=O)CC1c2ccccc2CCN1S(=O)(=O)c1ccccc1 (stereo unspecified)
CCOC(=O)c1c(C)oc2ccc(OC(=O)c3cccs3)cc12
CCC(C)(C)n1nnnc1C(c1ccncc1)N1CCC(C)CC1 (stereo unspecified)
Cc1nn(-c2ccccc2)c(N)c1C1(O)C(=O)Nc2ccccc21 (stereo unspecified)
O=C(NC1=NCCS1)c1cc(-c2cccnc2)nc2ccccc12
CC(C)COc1ccc(-c2cc(C(=O)NN)[nH]n2)cc1
CN1CCN(C2Cc3ccccc3Sc3ccc(Cl)cc32)CC1 (stereo unspecified)
CCCCCCCC/C=C\C/C=C\C/C=C\CCCC(=O)O
Cc1ccccc1NCCNc1ccccc1C
COC(=O)c1ccc(C)c(NC(=O)CCc2cc(OC)c(OC)c(OC)c2)c1
Cc1cc(C)nc(SCc2nnc(SCC(=O)Nc3cc(C(F)(F)F)ccc3Cl)o2)n1
O=C(CSc1nnc(CNC(=O)c2ccccc2F)o1)NCCc1ccccc1
CC(C)(C)c1ccc(C(=O)N2CCC(=O)N(C(CO)Cc3ccccc3)CC2)cc1 (stereo unspecified)
CN1CCN(c2ccccc2NC(=O)C(Cc2ccccc2)n2cccc2)CC1 (stereo unspecified)
CC1(C)OC(=O)C(=CNC(CO)C(=O)O)C(=O)O1 (stereo unspecified)

Potency, inconclusive:
O=C(COC(=O)c1cc(S(=O)(=O)N2CCOCC2)ccc1Cl)Nc1ccc2c(c1)OCO2 20 µM [inhibitor, partial curve]
NS(=O)(=O)c1ccc(CCNC(=O)c2cc(-c3cccs3)nc3ccccc23)cc1 35.5 µM [inhibitor, single point]
c1ccc(-c2cc3c(N4CCN(c5ccccc5)CC4)ncnc3s2)cc1 35.5 µM [inhibitor, partial curve]
CC1(C)C([N+](=O)[O-])C(c2ccc(O)cc2)NC(c2ccc(O)cc2)C1[N+](=O)[O-] (stereo unspecified) 14.1 µM [inhibitor, partial curve]
Cc1cc(C)n(-c2ccc(OCC(=O)O)nn2)n1 31.6 µM [inhibitor, single point]
CCC#CCOCC(=O)Nc1ccccc1 25.1 µM [inhibitor, single point]
COc1ccc(NS(=O)(=O)c2cc(NC(=O)c3cnccn3)ccc2N2CCCC2)cc1 39.8 µM [inhibitor, single point]
CCc1cc2c(SCc3nc4sc(C(C)=O)c(C)c4c(=O)[nH]3)ncnc2s1 31.6 µM [inhibitor, single point]
CC(NC(=O)N(Cc1ccccc1)Cc1ccc2c(c1)OCO2)(C(F)(F)F)C(F)(F)F 28.2 µM [inhibitor, single point]
CCN1CCN(c2cc(C)c3cc(NC(=O)c4ccc(OC)c(OC)c4)ccc3n2)CC1 44.7 µM [inhibitor, single point]
COc1cccc(C2SCC(=O)N2c2cccc(C)c2)c1OC (stereo unspecified) 44.7 µM [inhibitor, single point]
Cn1c(=O)n(C)c2cc(S(=O)(=O)NCC(=O)O)ccc21 29.9 µM [inhibitor, single point]
CCOCCCNC(=O)CS(=O)(=O)Cc1nc(-c2cccc(OC)c2)oc1C 31.6 µM [inhibitor, partial curve, poor fit]
C=CCn1c(=S)[nH]c2nc3c(cc2c1=O)CCCC3 3.55 µM [inhibitor, partial curve]
CC(C)c1ccc(CN(C(=O)C2COc3ccccc3O2)C2CCS(=O)(=O)C2)cc1 (stereo unspecified) 31.6 µM [inhibitor, single point]
CCOc1ccc(CSC(CC(=O)O)C(=O)O)cc1 (stereo unspecified) 39.8 µM [inhibitor, single point]
CCN1CCCc2cc(CN(CCN3CCOCC3)C(=S)Nc3ccc(OC)cc3)ccc21 1.26 µM [inhibitor, full curve]
COC(=O)CSc1nnc2n(-c3ccc(OC)cc3)c(=O)c3c4c(sc3n12)CCCCC4 7.08 µM [inhibitor, full curve]
COc1cc2c(cc1OC)CN(C(=O)CCCN1C(=O)c3ccccc3C1=O)CC2 35.5 µM [inhibitor, single point]
Cc1ccc(S(=O)(=O)Nc2ccc(-c3nc4ccc(C)cc4s3)cc2)cc1 31.6 µM [inhibitor, single point]
COCCCNC(=O)c1ccc(C2SCC(=O)N2Cc2ccco2)cc1 (stereo unspecified) 37.7 µM [inhibitor, single point]
CSc1nnc(-c2cnccn2)n1Cc1ccccc1 39.8 µM [inhibitor, single point]
Cn1c(SCC(=O)OC2CCCCC2)nnc1-c1ccc2c(c1)OCO2 28.2 µM [inhibitor, single point]
CCOC(=O)c1ccc(NC(=O)CN2C(=O)CNC2=O)cc1 39.8 µM [inhibitor, single point]
COc1ccc(-c2nnn(CC(=O)N(CCO)C(C(=O)NC3CCCC3)c3ccc(F)cc3)n2)cc1 (stereo unspecified) 3.98 µM [inhibitor, single point]
CN(Cc1ccco1)c1ccnc(-c2ccoc2)n1 39.8 µM [inhibitor, single point]
COc1cccc(/C=C2/SC(=O)N(C)C2=O)c1OCc1ccc(C(=O)O)cc1 39.8 µM [inhibitor, single point]
COC(=O)c1[nH]c2cccc(Cl)c2c1NC(=O)CN(C)C1CCCCC1 12.6 µM [inhibitor, partial curve]
Cc1nc(N)c(C#N)c(-c2ccccc2Cl)c1C 20 µM [inhibitor, partial curve]
CCOC(=O)C(Oc1ccc(=O)[nH]n1)C(C)=O (stereo unspecified) 14.1 µM [inhibitor, partial curve, poor fit]
CCCCN1C(=O)c2ccc(C(=O)NC3=NCCS3)cc2C1=O 2.82 µM [inhibitor, full curve]
CSc1ccc(S(=O)(=O)NC(C)c2ccccc2)cc1 (stereo unspecified) 17.8 µM [inhibitor, partial curve]
COc1ccc(C=Nc2c(O)ccc3ccccc23)cc1OC 7.08 µM [inhibitor, single point]
CCCCn1c(N)c(NCCC(C)C)c(=O)[nH]c1=O 39.8 µM [inhibitor, single point]
C=CCSc1nnc(NC(=O)c2ccc(S(=O)(=O)NCC3CCCO3)cc2)s1 (stereo unspecified) 35.5 µM [inhibitor, single point]
O=C(CN1CCOCC1)N1CCCc2c1c(=O)oc1ccc(OCc3ccccc3)cc21 14.1 µM [inhibitor, partial curve]

Potency, active:
O=C(NC(=S)N1CCN(c2ccc([N+](=O)[O-])cc2)CC1)c1ccc(F)cc1 7.08 µM
CC1(C)CN=c2s/c(=C\c3ccc(Cl)cc3)c(=O)n2C1 2.24 µM
CCCS(=O)(=O)N1CCN(Cc2ccccc2[N+](=O)[O-])CC1 8.91 µM
CCCCCN1C=CC=C/C1=C\C=C(C#N)C#N 0.447 µM
COCC(O)CSc1c([N+](=O)[O-])nc(C)n1Cc1ccc(OC)c([N+](=O)[O-])c1 (stereo unspecified) 25.1 µM
CCN1C(=O)c2cccc3c(S(=O)(=O)Nc4ccc(OC)cc4OC)ccc1c23 11.2 µM
C[C@@H]1/C(=N/O)CC2C[C@@H]1C2(C)C 11.2 µM
Cc1ccc(-n2c(C)cc(C(=S)N3CCOCC3)c2C)cc1C 28.2 µM
CCCCc1cc2c(cn1)=C(OC(=O)c1cccs1)C(C)(OC(=O)CC)C(=O)C=2 (stereo unspecified) 3.16 µM
CNc1ccccc1C(C)(C)c1cc(-c2ccco2)n[nH]1 7.94 µM
CN(c1ncc(C(F)(F)F)cc1Cl)n1cc(C(N)=O)c2ccccc2c1=O 25.1 µM
O=C(c1cc2cc([N+](=O)[O-])ccc2oc1=O)N1CCOCC1 12.6 µM
COc1ccc(S(=O)(=O)NCC2CCCN(C(=O)C=C(C)C)C2)cc1 (stereo unspecified) 4.47 µM
c1ccc(OCc2nn3c(Cn4nnc5ccccc54)nnc3s2)cc1 7.94 µM
CCOC(=O)c1c(NC(=O)C(C)Sc2cn(C)c3ccccc23)sc2c1CCC2 (stereo unspecified) 25.1 µM
Oc1ccc(/C=N/n2cnn(Cc3ccccc3Cl)c2=S)c(O)c1 20 µM

activity, negative = inhibition, inactive:
CC(C)=NOCc1ccc(-c2cn([C@@H]3COC[C@@H]3O)nn2)cc1 2.6% [at 13.5 µM]
COCCN1C(=O)N[C@@H](CCc2ccccc2)[C@H](C(C)=O)[C@H]1C 3.4% [at 13.5 µM]
O=C(O)C[C@H](Cc1ccc2c(c1)OCO2)C(=O)O 8.41% [at 13.5 µM]
